Measured values as given in PubChem BioAssay AID1345083 (National Center for Advancing Translational Sciences (NCATS), 2018).
“And” between values parts separate entries of the source, which are not always exact repeats. Identical values can stand only once. About 6,200 (6.6%) of roughly 94,000 compounds were called active. The inconclusive results got no clear call from the source; some entries with a clear call stand among them for comparison. Calls follow the shape of the dose curve; as a rule, active = well fitted inhibition curve with a large enough effect; inconclusive = small, poorly fitted or top-dose-only effect; inactive = flat fitted curve, though single readings scatter. Where the call is inconclusive, the potency comes from a doubtful curve fit.

assay: Cytotoxic Profiling in HEK 293 Cell Line of Diverse Libraries Using Quantitative High-Throughput Screening; conditions: HEK 293 viability, ATP luminescence (CellTiter-Glo), 48-72 h; activity change, negative = cytotoxicity: at 115 µM (top of the series) unless noted; series mostly up to 115 µM; also: nearly all actives have a fitted effect of over 60% in size
How it was run: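 Read-out: CellTiter-Glo ATP luminescence. Cells: HEK 293, 250 cells/well. Exposure: 48 or 72 hr, 37 degree Celsius.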
% is scaled to controls: 0 for no effect and ±100 for the full control effect; potency is read from the fitted curve at half-maximal effect; tags tell the direction and shape of the fitted curve.

| Structure (SMILES) | activity change, negative = cytotoxicity | Potency |
| --- | --- | --- |
| COCCS(=O)(=O)c1ncc(CN2CCCCO2)n1Cc1ccccc1 | inactive: -24% |  |
| O=C(c1ccc(N2CCOCC2)nc1)N1CCC(Cn2cccn2)CC1 | inactive: -6.09% |  |
| Cc1cc(C)cc(NC(=O)N2CCCC(Cn3c(C4CC4)nc4cccnc43)C2)c1 (stereo unspecified) |  | inconclusive: 50.1 µM [inhibitor, partial curve, poor fit] |
| COCCOc1cc(C)c2c(c1C)C[C@H](C(C)C(=O)N1CCSCC1)CC2 (stereo partly specified) |  | inconclusive: 44.7 µM [inhibitor, partial curve, poor fit] |
| O=C1CCC(C(=O)N2CCN(c3ccncc3)CC(O)C2)=NN1 (stereo unspecified) |  | inconclusive: 39.8 µM [inhibitor, full curve, poor fit] |
| COc1ccc(NC(=O)C2(C)CCCc3cnc(Nc4ccccc4)nc32)cn1 (stereo unspecified) |  | active: 89.1 µM |
| CN(C)c1cccc(C(=O)NC2CCN(c3cc(-c4cccs4)[nH]n3)C2)c1 (stereo unspecified) |  | inconclusive: 70.8 µM [inhibitor, single point] |
| Cc1ncccc1C(=O)N1CCC(c2nn(C)c(=O)n2C2CCCC2)CC1 | inactive: 0.676% |  |
| O=C(NCc1cccc(Cl)c1)c1cc(-c2cccs2)c2cccn2n1 |  | active: 28.2 µM |
| O=C(Nc1ccc(C2(C(=O)NCc3ccco3)CCCCC2)cc1)C1CC1 | inactive: -19.6% |  |
| CCCOC(=O)C1=CN(Cc2ccccc2)S(=O)(=O)N=C1C |  | inconclusive: 89.1 µM [inhibitor, single point] |
| COc1ccc(C(=O)N[C@H]2C[C@@H](c3nc(-c4ccc(OC)cc4)no3)N(C)C2)cc1 |  | inconclusive: 79.4 µM [inhibitor, partial curve, poor fit] |
| Cc1sc2ccn(C)c(=O)c2c1C(=O)N1CCN(c2ccc(F)cc2)CC1 |  | inconclusive: 89.1 µM [inhibitor, single point] |
| Cc1nnc(CN(C)c2ccc(-c3nc(-c4cccc(Cl)c4)no3)cn2)o1 |  | inconclusive: 31.6 µM [inhibitor, partial curve, poor fit] |
| CC(C(=O)NCC1CCCO1)N1C(=O)COc2ccc(C(=O)COc3ccc(F)cc3F)cc21 (stereo unspecified) |  | inconclusive: 35.5 µM [inhibitor, partial curve, poor fit] |
| COc1ccc(C(=O)N(CC2CC2)CC2CN(C(=O)Nc3ccccc3)CCO2)cc1OC (stereo unspecified) |  | active: 28.2 µM |
| COc1cccc(CNC(=O)[C@@H]2C[C@@H](O)CN2C2CCN(C(=O)c3sccc3C)CC2)c1 | inactive: -3.93% |  |
| COc1ccc(-c2[nH]nc3ncc(C(=O)NCCc4ccccc4)nc23)c(C)c1 |  | inconclusive: 56.2 µM [inhibitor, partial curve, poor fit] |
| COc1ccc(NC(=O)Cn2c(N3CCN(c4ccccc4)CC3)nc(C)cc2=O)cc1 |  | inconclusive: 70.8 µM [inhibitor, partial curve, poor fit] |
| COc1ccc2c(c1)OC[C@@H]1CN(CC(C)(C)O)C(=O)CCN(C(=O)c3ccc(F)cc3)[C@H]21 | inactive: -9.8% |  |
| O=C(c1cccnc1)N1CCCC2(C1)C(=NC1CCCCC1)NC(=O)N2c1cccnc1 (stereo unspecified) | inactive: 4.22% |  |
| O=C(NCc1ccccc1)c1cnc2n1CCN(Cc1ccccn1)CC2 |  | inconclusive: 126 µM [inhibitor, single point] |

| Structure (SMILES) | activity change, negative = cytotoxicity | Potency |
| --- | --- | --- |
| Cc1ccc(-c2[nH]ncc2CN)cc1C | inactive: 3.23% |  |
| Cc1cccc(C)c1NC(=O)N(C)CC1CCOC1 (stereo unspecified) | inactive: -1.39% |  |
| CN1c2cccnc2CN(C(=O)Nc2cccc(C(F)(F)F)c2)CC[C@H]1CO |  | inconclusive: 70.8 µM [inhibitor, partial curve, poor fit] |
| CC1=C[C@@H](CNC(=O)c2cnccn2)[C@H](C(C)C)C[C@H]1Cc1nc2ccccc2n1C |  | inconclusive: 56.2 µM [inhibitor, full curve, poor fit] |
| O=C(NC1CCCC1)N1CCC2(CC1)CC(N(Cc1ccc(F)cc1)C1CC1)CCO2 (stereo unspecified) |  | inconclusive: 44.7 µM [inhibitor, partial curve, poor fit] |
| Cc1ccccc1OCc1nc(C2CN(C(=O)c3cc(F)ccc3F)C2)no1 |  | inconclusive: 79.4 µM [inhibitor, partial curve] |
| CCS(=O)(=O)Nc1ccc(C2(C(=O)NCc3cccs3)CCCCC2)cc1 |  | inconclusive: 89.1 µM [inhibitor, single point] |
| COC(=O)[C@@H]1Cc2c([nH]c3ccccc23)[C@H]2C[C@@H](NCCO)C[C@@H](c3ccc(F)cc3)N21 |  | active: 28.2 µM |
| C[S+](=O)([O-])c1ccc(-c2cc3c(cn2)CN(Cc2ccccc2)CCN3)cc1 |  | inconclusive: 100 µM [inhibitor, partial curve, poor fit] |
| O=C(Nc1cccc(-c2nnc3n2CCCC3)c1)c1ccoc1 | inactive: 6.75% |  |
| COc1cccc(N2CC(C(=O)NCc3cccc(F)c3)NC2=O)c1 (stereo unspecified) |  | inconclusive: 126 µM [inhibitor, single point] |
| O=C(c1ccccc1)N1CCC2(C1)C(=O)N(CCc1ccccc1)c1ccccc12 (stereo unspecified) |  | active: 35.5 µM and inconclusive: 44.7 µM [inhibitor, partial curve, poor fit] |
| O=C(Nc1ccc(Cl)cc1)NC1CCN(c2nc3ncccc3o2)C1 (stereo unspecified) | inactive: 1.79% |  |
| N#Cc1ccc(CN2C[C@@H]3C[C@H]2C(=O)Nc2ccccc2O3)cc1 | inactive: -16.4% [at 172 µM] |  |
| CCSc1ncc(CN2CCN(c3nc(C)cnc3C)CC2)cn1 | inactive: -29.9% |  |
| COc1ccc2nc(C[C@@H]3C[C@@H](C(C)C)[C@H](CN4C(=O)C(C)=C(C)C4=O)C=C3C)[nH]c2c1 |  | inconclusive: 28.2 µM [inhibitor, partial curve, poor fit] |
| OCC1CN(C2CCC2)CC12CCN(Cc1ccc[nH]1)CC2 (stereo unspecified) |  | inconclusive: 79.4 µM [inhibitor, single point] |
| O=C(NCc1ccc(F)cc1)c1cc(-c2ccsc2)c2nncn2n1 |  | inconclusive: 79.4 µM [inhibitor, partial curve, poor fit] |
| CN1CCN(c2ccc(-c3noc([C@@H]4CCCN4Cc4ccncc4)n3)cn2)CC1 |  | inconclusive: 89.1 µM [inhibitor, partial curve] |
| COc1ccc(C(=O)N[C@@H]2CCC[C@@H]2C(=O)NCCCc2ccccc2)cn1 | inactive: -24.5% |  |
| O=c1[nH]nc2n1CCC(NS(=O)(=O)c1ccc(Cl)s1)CC2 (stereo unspecified) | inactive: -17.1% |  |
| COc1ccc2[nH]c3c(c2c1)CCNC31CCN(C(=O)C2CCOCC2)CC1 | inactive: -18.2% |  |

| Structure (SMILES) | activity change, negative = cytotoxicity | Potency |
| --- | --- | --- |
| COc1ccc(CC(=O)N2CCCN(c3cc(-c4ccc(Br)cc4)[nH]n3)CC2)cc1OC |  | inconclusive: 50.1 µM [inhibitor, partial curve, poor fit] |
| COc1ccccc1CN1CCC2(CCCN(C3CCOCC3)C2=O)C1 (stereo unspecified) | inactive: 1.96% |  |
| C#CCNC(=O)C1CCCN1Cc1cccc(-c2ccc(C)c(Cl)c2)c1 (stereo unspecified) |  | active: 39.8 µM |
| CN(C)CCN(C)c1ccc(-c2nc(-c3ccccc3F)no2)cn1 |  | inconclusive: 79.4 µM [inhibitor, partial curve] |
| N#Cc1ccc(CN2CCc3nc(C(=O)N4CCOCC4)oc3CC2)cc1 |  | inconclusive: 100 µM [inhibitor, partial curve, poor fit] |
| C[C@H](O)c1c(-c2ccc(F)cc2)noc1C(=O)N1CCC1 |  | inconclusive: 158 µM [inhibitor, single point] |
| COc1ccc(NC(=O)N2CCCC3(C2)Nc2cccnc2NC3=NC2CCCC2)c(C)c1 (stereo unspecified) |  | inconclusive: 70.8 µM [inhibitor, partial curve, poor fit] |
| CN(CC1CCOCC1)C(=O)c1ccc(Br)o1 | inactive: -14.1% |  |
| O=C(N[C@@H]1CCOC[C@H]1Oc1ccccn1)c1ccc(N2CCCC2=O)cc1 | inactive: -17.3% |  |
| COCc1ccc2c(c1)c(OC(C)(C)C(=O)NCc1ccncc1)nn2Cc1cccc(OC)c1 |  | inconclusive: 79.4 µM [inhibitor, single point] |
| COc1ccc(Cn2c(=O)c(C(=O)NC(C)C)nc3cccnc32)cc1 | inactive: -11.8% |  |
| O=C(c1c[nH]c2ccccc12)N1CCC2(CC1)COc1ccccc1[S+](=O)([O-])N2 |  | inconclusive: 50.1 µM [inhibitor, partial curve, poor fit] |
| O=C(CCC1CCCN(S(=O)(=O)c2ccccc2)C1)NCC1CCCCC1 (stereo unspecified) |  | inconclusive: 44.7 µM [inhibitor, partial curve, poor fit] |
| CCCN1CCC2(Cc3ccccc3CN(C(=O)C(C)C)C2)C1 (stereo unspecified) |  | inconclusive: 112 µM [inhibitor, partial curve, poor fit] |
| COc1ccc(CN2CCCC23Cc2ccccc2CNC3=O)cc1F (stereo unspecified) |  | inconclusive: 79.4 µM [inhibitor, single point] |
| NC(=O)CCc1ccc(CC2CCN(C(=O)c3cccnc3)CC2)cc1 |  | inconclusive: 56.2 µM [inhibitor, partial curve, poor fit] |
| CN(CC1CCN(CCc2ccc(F)cc2)CC1)C1CCC1 |  | inconclusive: 79.4 µM [inhibitor, partial curve] |
| Cc1ccsc1CN1CC(Oc2ccc(-c3noc(C4CCOCC4)n3)cc2)C1 |  | active: 20 µM |
| CCn1ccnc1CN(C)c1nccc(-c2ccc(C)nc2C)n1 |  | inconclusive: 89.1 µM [inhibitor, single point] |
| COc1ccc(C(=O)Nc2ccc3c(c2)CN(Cc2cc(F)cc(F)c2)C(=O)C(C)O3)cc1 (stereo unspecified) |  | inconclusive: 44.7 µM [inhibitor, partial curve] |
| C=CCN1CC2(CCC1=O)CCN(c1nccc(C(F)(F)F)n1)CC2 |  | inconclusive: 44.7 µM [inhibitor, partial curve, poor fit] |
| O=C(NC1CCNCC1)c1cc(C2CC2)nc2c1c(C1CCCN1)nn2-c1ccccc1 (stereo unspecified) |  | active: 44.7 µM |
